The test system of this data set is NCI-H322M. On the procedure: The primary anticancer assay was performed on a panel of approximately sixty human tumor cell lines derived from nine neoplastic diseases (leukemia, melanoma, lung, colon, CNS, ovarian, renal, prostate, and breast cancers), in accordance with the protocol of the National Cancer Institute Drug Evaluation Branch (Bethesda, MD, USA). Tested compounds were added to the culture at a single concentration (10^−5 M) and the cultures were incubated for 48 h. End-point determinations were made with a protein-binding dye, sulforhodamine B (SRB). Results for each tested compound were reported as the percentage of the growth of the treated cells when compared to the untreated control cells. The percentage of the growth was evaluated spectrophotometrically versus controls not treated with test agents. […] Using absorbance measurements [time zero (Tz), control growth in the absence of drug (C), and test growth in the presence of the drug (Ti)], the percentage growth was calculated for each drug concentration. Percentage growth inhibition was calculated as:[(Ti − Tz)/[…]] × 100(1) for concentrations for which Ti ≥ Tz, [(Ti − Tz)/Tz] × 100 for concentrations for which Ti < Tz. Dose-response parameters (GI50, TGI) were calculated for each compound. Growth inhibition of 50% (GI50) was calculated from [(Ti − Tz)/(C − Tz)] × 100 = 50, which is the drug concentration resulting in a 50% lower net protein increase in the treated cells (measured by SRB staining) as compared to the net protein increase seen in the control cells. The drug concentration resulting in total growth inhibition (TGI) was calculated from Ti = Tz. Values were calculated for each of these parameters if the level of activity was reached; however, if the effect was not reached or was excessive, the value for that parameter was expressed as more or less than the maximum or minimum concentration tested. The lowest values were obtained with the most sensitive cell lines. Compounds having GI50 values ≤ 100 μM were declared to be active. The selectivity index (SI) calculated by dividing the full panel MG_MID (full-panel mean-graph midpoint) (μM) of the compounds 2h and 2i by their individual subpanel MG_MID of a cell line (μM) was considered as a measure of compounds’ selectivity. Ratios between 3 and 6 mean moderate selectivity, ratios greater than 6 indicate high selectivity toward the corresponding cell line, while compounds not meeting either of these criteria are rated nonselective.

Where two headings read alike, the source gives them in different places.

The GI50 is the concentration that inhibits growth by half. What is called TGI is the concentration giving total growth inhibition. A lower TGI goes with greater sensitivity of the cells.

With “Ethyl(Z)-4-(3-(4-chloro-2-((6-oxothiazolo[3,2-b][1,2,4]triazol-5(6H)-ylidene)methyl)phenyl)propanamido)benzoate [Compound 2i]”, the CC50 amounted to 53.7 µM. For the setting “NCI-H322M, NSCLC”, this molecule returned a GI50 of 15.1 µM and a TGI of 28.84 µM.
In turn, `O=C(COc1ccc(Cl)cc1/C=c1\sc2ncnn2c1=O)Nc1ccc(Cl)cc1` [Compound 2h, (Z)-2-(4-Chloro-2-((6-oxothiazolo[3,2-b][1,2,4]triazol-5(6H)-ylidene)methyl)phenoxy)-N-(4-chlorophenyl)acetamide] returned a GI50 (Homo sapiens, NCI-H322M) of 13.2 µM. Also, under “Homo sapiens, NCI-H322M, read-out: LC50”, the CC50 amounted to 51.3 µM. Under “NCI-H322M, NSCLC”, the concentration for total growth inhibition (TGI) turned out to be 25.70 µM.

For the origin of these results see publication PMC7926352, “Synthesis, Characterization and In Vitro Evaluation of Novel 5-Ene-thiazolo[3,2-b][1,2,4]triazole-6(5H)-ones as Possible Anticancer Agents” (Molecules, 2021).
